Measured values reported in PubChem BioAssay (NCATS).
The other results are listed elsewhere or left out. The main result of the screen is listed elsewhere. These columns were measured beside it and carry no call. Compounds called inactive in the main read-out are mostly missing here. The note in brackets gives the kind of curve behind each potency; many fits are weak.

Assay: qHTS Assay for Lipid Storage Modulators (AID 1519)
Conditions: Drosophila S3 cells, BODIPY lipid droplet/cell ratio, laser cytometry, cells loaded with oleic acid
Procedure, shortened: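 Cells seeded at 5,000 per well were treated with compounds over a concentration series and loaded with oleic acid (400 uM, as added). Lipid droplet fluorescence (488 nm excitation, 500-530 nm channel) was read by laser-scanning cytometry and normalized to 20 uM Triacsin C.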

[1] = measured here: cell count channel max response
[2] = measured here: cell number channel AC50
[3] = measured here: lipid (BODIPY) channel AC50
[4] = measured here: lipid channel max response
Tags tell the direction and shape of the fitted curve.

| Compound | max response [1] [%] | AC50 [2] | AC50 [3] | max response [4] [%] |
| --- | --- | --- | --- | --- |
| COc1ccc(Oc2ncc3nc(-c4ccccc4)c(=O)n(C4CC4)c3n2)cc1 | 14.5 | 15.8 nM [rising, full curve, poor fit] | 15.8 nM [rising, full curve, poor fit] | 15.8 |
| CNc1nc(-c2cccc(NS(C)(=O)=O)c2)nc2ccccc12 | 34.1 | 1000 nM [rising, full curve, poor fit] | 794 nM [rising, full curve] | 40.2 |
| COc1ccc2[nH]cc(CCNc3ccnc(-c4ccccc4Cl)n3)c2c1 | 16.2 | 631 nM [rising, full curve, poor fit] | 1780 nM [rising, partial curve] | 20.6 |
| c1cncc(-c2nc(-n3ccnc3)c3ccccc3n2)c1 | 27.6 | 708 nM [rising, full curve, poor fit] | 1780 nM [rising, full curve, poor fit] | 32.3 |
| COc1ccc(-c2nc3cnc(OC)nc3n(C)c2=O)cc1 | 30 | 3160 nM [rising, full curve, poor fit] | 3160 nM [rising, full curve] | 39.4 |
| CC(=O)OC1CCC2(C)C(CCC3(C)C2C(=O)C=C2C4CC(C)(C(=O)OCCN5CCCCC5)CCC4(C)CCC23C)C1(C)C (configuration not stated) | 40.5 | 14100 nM [rising, partial curve, poor fit] | 15800 nM [rising, partial curve, poor fit] | 40.5 |
| Cc1noc(C)c1-c1cncnc1Nc1ccccc1 | 40.7 | 3160 nM [rising, full curve] | 2240 nM [rising, full curve] | 47.8 |
| COc1cccc(Cn2c(=O)c(-c3ccc(Cl)cc3)nc3cncnc32)c1 | 3.55 | 1410 nM [rising, partial curve] | 794 nM [rising, partial curve] | 10.1 |
| CSc1nc(N)c2ncn([C@@H]3O[C@H](COP(=O)(O)OP(=O)(O)O)[C@H](O)[C@H]3O)c2n1 | -20 | 7.94 nM [falling, full curve, poor fit] | 7.94 nM [falling, full curve, poor fit] | -21.4 |
| CN1CCN2c3ncccc3Cc3ccccc3C2C1 (configuration not stated) | 37.8 | 39800 nM [rising, single point] | 39800 nM [rising, single point] | 39.6 |
| Cc1cnc(CNc2cc(-c3ccc(C(=O)N(C)C)cc3)ncn2)cn1 | 33.2 | 17800 nM [rising, single point] | 20000 nM [rising, single point] | 37.4 |
| COc1cc(/C=C\c2ccc(OC)cc2OC)cc(OC)c1 | 85.4 | 4470 nM [rising, full curve] | 3980 nM [rising, full curve] | 114 |
| CNc1ncncc1-c1ccc(C(=O)N(C)C)cc1 | 33.5 | 15800 nM [rising, partial curve, poor fit] | 15800 nM [rising, partial curve, poor fit] | 47.7 |
| CC(=O)NCCNc1nc(-c2cccc(NS(C)(=O)=O)c2)nc2ccccc12 | 39.7 | 178 nM [rising, full curve, poor fit] | 1580 nM [rising, full curve, poor fit] | 50.2 |
| COc1ccc(Oc2ncc3ncc(=O)n(Cc4cccs4)c3n2)cc1 | 19.7 | 2240 nM [rising, partial curve, poor fit] | 22.4 nM [rising, full curve, poor fit] | 24.9 |
| COc1ccc2[nH]cc(CCNc3ccnc(-c4c(C)noc4C)n3)c2c1 | 28.2 | 89.1 nM [rising, full curve, poor fit] | 89.1 nM [rising, full curve, poor fit] | 32.5 |
| N#CCCn1c(=O)c(-c2ccccc2)nc2cnc(OCc3ccccc3)nc21 | 7.84 | 316 nM [rising, partial curve, poor fit] | 251 nM [rising, partial curve, poor fit] | 11.6 |
| COc1ccc(CCNC[C@@H](O)c2ccc(O)cc2)cc1OC | 62.5 | 39800 nM [rising, single point] | 39800 nM [rising, single point] | 61.1 |
